The campaign covered roughly 420,000 compounds. About 64,000 (15%) were called active. This list was built around the results that the source calls inconclusive (neither active nor inactive); the mix of calls is not that of the screen. Calls follow the shape of the dose curve; as a rule, active = well fitted inhibition curve with a large enough effect; inconclusive = small, poorly fitted or top-dose-only effect; inactive = flat fitted curve, though single readings scatter. Potencies of inconclusive entries are left out as doubtful fits.
Assay: qHTS for Inhibitors of human tyrosyl-DNA phosphodiesterase 1 (TDP1): qHTS in cells in absence of CPT; also: nearly all actives have a fitted effect of over 55% in size
Conditions: DT40 Tdp1-/- hTDP1 cells, no CPT, ATP luminescence, 48 h; activity change, negative = growth inhibition: at 46.2 µM (top of the series) unless noted
In short: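 Luminescent ATP content (CellTiter-Glo) served as the growth readout. Knockout chicken DT40 cells expressing human TDP1 were exposed to compounds without camptothecin for a minimum 48 hr at 37 °C.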
% is scaled to controls: 0 for no effect and ±100 for the full control effect; potency is read from the fitted curve at half-maximal effect; tags tell the direction and shape of the fitted curve.

Row | Compound | Potency | activity change, negative = growth inhibition
1 | CC(=O)c1ccc(OCCOc2ccc([N+](=O)[O-])cc2)cc1 | inconclusive [inhibitor, single point] | 
2 | Fc1ccc(COc2ccc(C(=S)N3CCCC3)cc2)cc1 | inconclusive [inhibitor, single point] | 
3 | C=CCNc1ncnc2c1ncn2[C@H]1CN(Cc2ccc(F)cc2)C[C@@H](CO)O1 | inconclusive [inhibitor, single point] | 
4 | CC1CC(C)CN(C(=O)c2ccc(Br)c(S(=O)(=O)N3CCOCC3)c2)C1 (stereo not drawn) | inconclusive [inhibitor, single point] | 
5 | Cc1ccc(N2CCN(S(=O)(=O)c3ccc4oc(=O)c5ncn(C)c5c4c3)CC2)c(C)c1 | inconclusive [inhibitor, full curve] | 
6 | COc1ccc(N2C(=O)C3C4c5ccccc5C(C=Nc5ccc(C)cc5C)(c5ccccc54)C3C2=O)cc1 (stereo not drawn) | inconclusive [inhibitor, single point] | 
7 | Cc1cc(CNC(=O)Cc2ccc(F)cc2)c2ccccc2n1 | inactive | 
8 | CCOc1ccc(-c2nnc3sc(COc4ccccc4)nn23)cc1 | inconclusive [inhibitor, single point] | 
9 | CCOCCCNC(=O)Nc1cc(C(=O)NCc2ccc(C(C)C)cc2)ccc1N1CCCC1 | inconclusive [inhibitor, single point] | 
10 | CC1=C(SCCC#N)S/C(=C2\SC(C)=C(SCCC#N)S2)S1 | inconclusive [inhibitor, single point] | 
11 | c1ccc2sc(N3CN(CCN4CCOCC4)CN(c4nc5ccccc5s4)C3)nc2c1 | inconclusive [inhibitor, single point] | 
12 | CC(=O)c1ccc(C(=O)N(Cc2cccnc2)c2nc3c(Cl)cccc3s2)cc1 | inconclusive [inhibitor, single point] | 
13 | CC(C)(CNC(=O)c1ccc(-c2cccc(C(F)(F)F)c2)o1)N1CCOCC1 | inconclusive [inhibitor, single point] | 
14 | CC(C)n1nc(C(=O)Nc2cccc(S(=O)(=O)NCc3ccco3)c2)c2ccccc2c1=O | inconclusive [inhibitor, single point] | 
15 | Cc1ccc(OCCCn2c(=O)sc3ccccc32)cc1 | inactive | 
16 | COc1cc2c(cc1OC)C(COc1ccc(F)cc1)N(C(=O)c1ccccc1F)CC2 (stereo not drawn) | active: 16.4 µM | 
17 | Cc1cccc(-c2nnc(SCC(=O)N3CCCc4ccccc43)o2)c1 | inconclusive [inhibitor, single point] | 
18 | COc1cc(CN2CCCC(C(=O)c3ccccc3SC)C2)cc(OC)c1 (stereo not drawn) | inconclusive [inhibitor, partial curve] | 
19 | CCCCCCCCCCCCCCCC(=O)NCCO | inconclusive [inhibitor, single point] | 
20 | CC1CC(C)CN(c2oc(Cc3ccccc3)nc2C#N)C1 (stereo not drawn) | inconclusive [inhibitor, single point] | 
21 | COc1cccc(-c2nnc(SCCOc3ccc4c(C)cc(=O)oc4c3)o2)c1 | inconclusive [inhibitor, single point] | 
22 | CC(=O)c1ccc2c(c1)N(Cc1ccccc1)C(=O)C(C)S2 (stereo not drawn) | inconclusive [inhibitor, single point] | 

Row | Compound | Potency | activity change, negative = growth inhibition
23 | CCCc1nnc(SCC(=O)N2CCCC(C)C2)n1CCOC (stereo not drawn) | inactive | 
24 | COC(=O)C(C)NC(=O)N1CCN(c2nnc(C)c3c(C)n(-c4ccc(Cl)cc4)nc23)CC1 (stereo not drawn) | active: 23.1 µM | 
25 | Cc1ccc(S(=O)(=O)c2nnn3c2nc(NCc2cccs2)c2sccc23)cc1C | inconclusive [inhibitor, single point] | 
26 | CCOC(=O)c1c(-c2ccccc2)oc2ccc(OC(C)=O)cc12 | inactive | 
27 | O=C(NCCc1ccccc1)c1cccc([N+](=O)[O-])c1 | inconclusive [inhibitor, single point] | 
28 | CC(C)C(NS(C)(=O)=O)c1nnc2n1CCN(Cc1ccnc3ccccc13)CC2 (stereo not drawn) | inactive | 
29 | COc1cc(OC)cc(C(=O)Nc2ccc(-c3nc4ccccc4o3)cc2)c1 | active: 16.4 µM | 
30 | O=C(/C=C/c1c(Cl)nc2ccccn12)N1CCCCC1 | inconclusive [inhibitor, single point] | 
31 | Cn1nnnc1SCCNCc1ccccc1OCc1ccc(Cl)cc1Cl | active: 9.2 µM | 
32 | O=C(NCCc1c[nH]c2ccccc12)/C(=C\c1cccnc1)NC(=O)c1ccco1 | inconclusive [inhibitor, partial curve] | 
33 | O=[N+]([O-])c1cc2ccccc2nc1-c1ccccc1 | inactive | 
34 | O=C(NCc1ccc(F)cc1)c1cc(C2CCCN(C(=O)c3cccs3)C2)on1 (stereo not drawn) | inconclusive [inhibitor, single point] | 
35 | CC(=O)Nc1cccc(NC(=O)c2c(-c3ccccc3)noc2C)c1 |  | inconclusive: -30.6% [inhibitor]
36 | CCc1ccccc1N(CC(=O)Nc1cccnc1)S(=O)(=O)c1ccccc1 | inconclusive [inhibitor, single point] | 
37 | Cc1cccc(CS(=O)(=O)c2ncc(Cl)c(C(=O)Nc3nc4ccc(F)cc4s3)n2)c1 | active: 2.31 µM | 
38 | COc1ccc2oc(C(=O)OCC(=O)N3CCCC3=O)c(C)c2c1 | inactive | 
39 | CCOc1ccc(NC(=O)c2ccc(F)c(S(=O)(=O)N3CCCC3)c2)cc1 | active: 11.6 µM | 
40 | O=C1[C@H]2[C@@H](c3ccc(F)cc3)N3C(=O)N(c4cccc(Br)c4)C(=O)[C@@]3(Cc3ccc(Cl)cc3)[C@H]2C(=O)N1C1CCCCC1 | inconclusive [inhibitor, single point] | 
41 | O=C(Oc1ccc(/C=N/Nc2nc(N3CCCCC3)nc(N3CCCCC3)n2)cc1)c1ccco1 | active: 16.4 µM | 
42 | N#Cc1c(N)nc(SCc2ccccc2)c(C#N)c1-c1ccco1 | inconclusive [inhibitor, single point] | 
43 | COc1cc(C2C(C#N)=C(N)Oc3cc(O)ccc32)cc2c1OCO2 (stereo not drawn) | inconclusive [inhibitor, single point] | 

From PubChem BioAssay AID686978 (National Center for Advancing Translational Sciences (NCATS), 2013)
